Sequences with one replicate were seen in a single cluster, so their values are uncertain.
System: ATP
Assay: switch fluorescence ratio, 500 uM ATP over buffer (Cy3 cluster intensity, sum of 5 cycles each) (fold (ratio)); higher = stronger signal-on switching upon ATP binding; sequences stand for … in TCGTCGGCAGCGTCAGATGTGTATAAGAGACAGTTTTTTTTTTTTTTTTTTTTTTTTT…TC
Settings: aptamer strand: ATP DNA aptamer (quencher-CACCTGGGGGAGTATTGCGGAGGAAGG + anchor), 100 nM annealed; ATP concentration: 500 uM; one replicate
Summary of the method: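 Cy3-labelled switching-strand clusters on a modified Illumina MiSeq flow-cell were annealed to 100 nM quencher-labelled ATP aptamer, imaged in selection buffer, then imaged after 15 min with 500 uM ATP at 22 °C. Five buffer/ATP cycles ran, with NaOH stripping and re-annealing between them. The fluorescence ratio is summed target-cycle over summed buffer-cycle Cy3 intensity per cluster, averaged per switch-domain sequence. Clusters outside 100-1000 RFU were excluded.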
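Note: ATP exposure 15 min at 22 °C before imaging.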

Row | Sequence | switch fluorescence ratio
1 | GTCCGGGTGA | 1.93
2 | GGGGGGTCA | 1
3 | TAGTTTTCAA | 1.01
4 | GGAATATTTC | 0.977
5 | ACGAGCGGGA | 1.03
6 | TCGATAACAC | 1.02
7 | TGGCTAGGT | 0.985
8 | AAGTAGGTTC | 0.924
9 | CGTTTACAAC | 0.985
10 | GGGGGTCCCA | 0.99
11 | CGACTTAGGC | 0.916
12 | CGCAAGGAGT | 1
13 | AGTATTTGT | 0.971
14 | ACCAAAGCAC | 2.45
15 | ACGCTCTATG | 1.05
16 | AAACATAAAA | 1.27
17 | AAGCCTGGCT | 0.967
18 | TTTCTTAT | 0.997
19 | TCGGACTTGT | 1.02
20 | CCTCGTTGTT | 1.04
21 | AATGCGGAAT | 1.03
22 | GAGATTGAGT | 0.985
23 | GAAGTTGGAA | 1

Row | Sequence | switch fluorescence ratio
24 | TCTTCGAGGA | 1.02
25 | ACAGTGACAT | 1.07
26 | CTAACTTACG | 1.34
27 | CGGGCCGAGA | 1.13
28 | CCGGTTGTTT | 0.964
29 | AGGAATAGGG | 0.993
30 | CTCTCGGTAT | 1.08
31 | GTTGCTTATT | 1.03
32 | GAGGCACATG | 1.05
33 | AGATTGACTC | 1.05
34 | TTGGTAATAC | 1.09
35 | TTTCAGGGAC | 1.12
36 | AAGGGACGCA | 1.18
37 | GAGAAAAGTA | 0.98
38 | CGCAGAATTT | 1.04
39 | ATGAGGATAT | 1
40 | CGCACGATCC | 1.86
41 | CGTGGAAATG | 1
42 | GAGGTCGGCG | 1.02
43 | GCCGTAGGTC | 0.988
44 | ACAGGGCTTA | 0.997
45 | TGGGTATGC | 1.02
46 | CTGATACGG | 0.955

Row | Sequence | switch fluorescence ratio
47 | TACGTGAGTT | 1
48 | ACGCCATAAT | 1.2
49 | ACATCACCTC | 1.26
50 | AGGTTATCCT | 1
51 | CGTGCTTACC | 1.07
52 | ATCGTACGTT | 0.989
53 | TAGGCTCACA | 1.04
54 | TTTTCTCAGG | 1.05
55 | ACAATATCGT | 0.992
56 | GCTACCTGTG | 1.02
57 | GACTTATCTG | 1
58 | ACATCTCAGC | 1.01
59 | TGCCTGCCAA | 1.06
60 | CGAGAACTGT | 1.02
61 | TCGCCCCGTG | 1.11
62 | TTAAGAGTCG | 1.07
63 | ACTTTAATGG | 0.992
64 | TTCATTAGTT | 1.02
65 | GGAAAGCGTT | 1.03
66 | ATTAGGGTAG | 0.967
67 | AATTATCCCC | 1.04
68 | TTGAAGATTG | 0.999
69 | GTCTGGGGAT | 0.975

Row | Sequence | switch fluorescence ratio
70 | GGCTCACAAT | 1.04
71 | ACGATAGATT | 1.05
72 | ATCGCAACTT | 1.18
73 | AAACAATCGG | 0.997
74 | CGCGGTGTTA | 1.07
75 | ACAGTAAGGC | 1.19
76 | TAGGTTGGC | 1.01
77 | TACTGTCGT | 1.03
78 | CAAATCCGAT | 0.973
79 | TGGCGGGCTC | 1.01
80 | CATCTGGGGT | 1.02
81 | CGTTCGGTAC | 3.26
82 | TGTTGTTTT | 1.04
83 | GAGCTTGTCT | 1.04
84 | GGTGACCTGT | 0.964
85 | TCATCGATTC | 0.995
86 | ATAGCCCGGA | 1.01
87 | ATCAGCATCG | 0.98
88 | CGATTGTGAC | 1.05
89 | GCATATAATT | 0.998
90 | TTTAGTATTC | 1.02
91 | AAGTAATAGT | 1.01
92 | CTGGGATTTA | 0.972

Row | Sequence | switch fluorescence ratio
93 | CTGGAGATCC | 1.07
94 | TAACTCTTAC | 1.2
95 | GGATGTTTTA | 0.98
96 | AGGTGTCTCG | 1.02
97 | TTAACTAGAG | 1.01
98 | AGGCAGTTAG | 1
99 | GGAGGTTAGT | 1.02
100 | ATCTCTCTTG | 0.988
101 | CAAATTCCA | 0.995
102 | ACAAGGAGAC | 1.01
103 | CGTACGTGCC | 1.02
104 | AGTGAAGCGA | 1.02
105 | ACTATGCGTT | 1.07
106 | CGTGTCGAGT | 0.948
107 | AGCGGGACAC | 1.03
108 | ATTAGCCTAG | 1.01
109 | ATATCGTTAT | 1.03
110 | TCATTCTTAG | 0.995
111 | TGGCCGGATT | 1.06
112 | CTGAATACCA | 1.01
113 | AAGCTATATT | 1.06
114 | GATGGTCCGA | 1
115 | ATAGTATTTC | 1

Row | Sequence | switch fluorescence ratio
116 | AGATGTAAGA | 1.01
117 | GGGGCCACTA | 0.963
118 | CCGGGAGGGC | 1.08
119 | ATCACTTTTG | 1.03
120 | ACGTCACGAT | 1.39
121 | GCAGCTACCG | 1.07
122 | TTTGTGACAC | 1.07
123 | CAATATTCCT | 1.22
124 | TTCACTATGG | 0.979
125 | CTCGACGTT | 0.981
126 | ATTTCAGTGG | 0.973
127 | AACTAAATGG | 0.918
128 | GGGGGCGTG | 1.01
129 | ATGTTAATAT | 0.986
130 | CATTGCATTG | 1.02
131 | GTCCGAAAGG | 1.03
132 | TAGGCATACC | 0.991
133 | GGTGTTGGT | 1.04
134 | TGAATTGATT | 0.941
135 | TGTCCATATT | 0.984
136 | TTAACTTGAT | 1.05
137 | ATTAGGTCGA | 0.983
138 | AAACGACAGG | 1.04

Row | Sequence | switch fluorescence ratio
139 | CTAGGATATT | 0.987
140 | CGGCGGTAGC | 0.94
141 | AATGATTTT | 0.938
142 | ATTAACCCCG | 1.04
143 | TTCCGATGCC | 1.4
144 | TGATTTTCCT | 1.06
145 | GATCATGTTG | 1.02
146 | TTATGGCCCC | 0.953
147 | CGTTATGCGT | 0.981
148 | ACCACGGCTC | 0.979
149 | TGCAAATGTT | 1.03
150 | GTTGTTGCGG | 1.07
151 | CAGAGGGGAA | 1
152 | GATAATTACG | 1.06
153 | CACGATAAAC | 1.1
154 | CGATCCGGGG | 0.966
155 | GTAGGTGCAG | 0.929
156 | CGTTCGTAAG | 1.1
157 | GCGCTACCTT | 1.12

Reference: the supplement of paper PMC10126150
